Earlier results in patent publication USRE41288E1, “Metabolic intervention with GLP-1 or its biologically active analogues to improve the function of the ischemic and reperfused brain” (Amylin Pharmaceuticals, Inc., priority 1998, dated 2010).
Where no end group is shown, it is not given here.

How the values were obtained:
[1] = global ischemia models
[2] = transient focal cerebral ischemia models

## Glu Gly Thr Phe Thr Ser Asp Val Ser Ser Tyr Leu Glu Gly Gln Ala Ala Lys Glu Phe Ile Ala Trp Leu Val Lys Gly Arg (NH2) (EGTFTSDVSSYLEGQAAKEFIAWLVKGR-NH2; listed as Homo sapiens) [SEQ ID NO:6]
pancreas
  stimulation of production or release of insulin from the pancreas: do not stimulate the production or release of insulin from the pancreas

## Glu Gly Thr Phe Thr Ser Asp Val Ser Ser Tyr Leu Glu Gly Gln Ala Ala Lys Glu Phe Ile Ala Trp Leu Val Lys Gly Arg Gly (EGTFTSDVSSYLEGQAAKEFIAWLVKGRG; listed as Homo sapiens) [SEQ ID NO:5]
pancreas
  stimulation of production or release of insulin from the pancreas: do not stimulate the production or release of insulin from the pancreas

## insulin
[1]
  protective effect (infarct size, neurological deficit, metabolic recovery): remarkable protective effect
[2]
  protective effect (infarct volume, extent of cerebral necrosis): strong protective effect

## tissue plasminogen activator [tPA]
some, but not all, of the controlled trials, acute ischemic stroke
  improvement in clinical outcome: 30-55%
tPA-treated group vs. 0.64% placebo, half of which were fatal
  risk of intracranial hemorrhage: 6.4%
